Test results published in paper PMC4336329 (PLoS ONE, 2015).
Out of some 310,000 compounds screened, about 2,200 (0.71%) showed an effect of 50% or more. Effects have a minus sign here. This is one part of the list.

The compounds below were run against human ether-à-go-go-related gene (hERG) potassium channel (human, UniProt Q12809) (assay: primary screen, population patch clamp on CHO cells stably expressing hERG).
Sequence of human ether-à-go-go-related gene (hERG) potassium channel (Q12809 whole entry, looked up): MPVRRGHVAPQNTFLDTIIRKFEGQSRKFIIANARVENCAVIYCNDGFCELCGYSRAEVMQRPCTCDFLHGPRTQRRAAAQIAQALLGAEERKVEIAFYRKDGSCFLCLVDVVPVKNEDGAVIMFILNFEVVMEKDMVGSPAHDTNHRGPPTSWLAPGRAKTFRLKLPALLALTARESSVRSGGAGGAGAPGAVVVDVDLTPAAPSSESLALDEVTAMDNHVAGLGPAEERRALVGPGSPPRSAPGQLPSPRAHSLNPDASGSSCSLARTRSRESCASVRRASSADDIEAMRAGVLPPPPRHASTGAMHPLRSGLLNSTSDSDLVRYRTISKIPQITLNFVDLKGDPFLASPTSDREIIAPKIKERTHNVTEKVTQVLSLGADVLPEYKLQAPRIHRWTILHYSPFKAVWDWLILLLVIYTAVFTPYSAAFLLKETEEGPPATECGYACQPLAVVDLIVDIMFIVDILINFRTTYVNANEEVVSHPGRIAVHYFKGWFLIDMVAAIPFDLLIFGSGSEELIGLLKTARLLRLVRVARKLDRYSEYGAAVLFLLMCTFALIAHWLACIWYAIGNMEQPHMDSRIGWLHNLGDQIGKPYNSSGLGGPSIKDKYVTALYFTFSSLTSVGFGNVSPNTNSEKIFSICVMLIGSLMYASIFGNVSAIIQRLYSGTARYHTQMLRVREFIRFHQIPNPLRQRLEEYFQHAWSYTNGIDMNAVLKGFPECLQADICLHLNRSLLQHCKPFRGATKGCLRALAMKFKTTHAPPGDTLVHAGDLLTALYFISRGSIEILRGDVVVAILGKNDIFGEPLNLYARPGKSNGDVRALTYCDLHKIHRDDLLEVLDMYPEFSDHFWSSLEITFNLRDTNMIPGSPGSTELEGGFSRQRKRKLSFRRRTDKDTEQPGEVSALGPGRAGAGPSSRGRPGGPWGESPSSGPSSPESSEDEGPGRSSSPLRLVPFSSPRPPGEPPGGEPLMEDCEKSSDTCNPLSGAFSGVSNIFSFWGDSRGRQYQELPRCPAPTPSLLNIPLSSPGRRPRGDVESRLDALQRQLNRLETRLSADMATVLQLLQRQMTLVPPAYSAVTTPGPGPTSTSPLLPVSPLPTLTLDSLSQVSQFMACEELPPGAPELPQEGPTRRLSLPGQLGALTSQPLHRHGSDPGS

Structure (SMILES)	hERG current change (%, negative = inhibition) at 1uM
COC(=O)c1c(C)[nH]c(/C=N/Nc2ccccc2)c1C	9.59%
COc1ccc(CN2C(=O)c3oc4ccccc4c(=O)c3C2c2ccc(O)c(OC)c2)cc1 (stereo not shown)	11%
CCOc1ncccc1C(=O)Nc1cc(S(=O)(=O)N2CCCCC2)ccc1C	5.65%
CCN(CC)c1ncc(C)c(=O)[nH]1	13.4%
CN(CCC#N)C(=O)c1cc2c(s1)-c1ccccc1SC2	13.8%
CC(C)CNC(=O)c1cc2nc3c(c(C(F)(F)F)n2n1)CCc1ccccc1-3	7.19%
CCc1ccc2c(c1)C(=O)c1ccccc1C2=O	9.46%
Cc1cccc(CSc2nnc([C@@H]3CCCN3C(=O)OC(C)(C)C)o2)c1	12.2%
Cc1nn(-c2ccccc2)c(N2CCCC2)c1/C=N/NC(=O)c1cc(-c2cccnc2)nc2ccccc12	10.6%
CSCCC(C(=O)N1CC2(C)CC1CC(C)(C)C2)N1C(=O)c2ccccc2C1=O (stereo not shown)	6.74%
C/C(CC(=O)Nc1ccc(Br)cc1)=N\NC(=O)c1cccc(O)c1	15.6%
CC(C)Cc1ccc(CN2CCCC(NC(=O)CCN3CCCO3)C2)cc1 (stereo not shown)	-17.3%
Cc1ccc(C(=O)NCCNC(=O)c2ccco2)cn1	9.25%
CCC(=O)N(CCC(Cc1ccccc1)c1ccco1)Cc1ccco1 (stereo not shown)	17.2%
Cc1ncc(CN2CCCC(C(=O)c3cccc(Cl)c3)C2)s1 (stereo not shown)	6.69%
O=C(NCc1ccco1)Nc1ccc(OC(F)(F)F)cc1	3.97%
CCC(=O)Nc1cccc(NC(=O)CN2CCN(c3ccccc3OC)CC2)c1	10.1%
COc1ccc(/C=C(\C#N)C(=O)OCC(=O)Nc2c(C)cccc2C)cc1	7.38%
O=C(CN1C(=O)N/C(=C\c2ccccc2OCc2ccc(C(=O)O)cc2)C1=O)Nc1ccccc1F	1.95%
CC(C)(C)NC(=O)NC(=O)CN1CCN(C(c2ccccc2)c2ccccc2)CC1	4.05%

Structure (SMILES)	hERG current change (%, negative = inhibition) at 1uM
CCS(=O)(=O)c1nc(S(=O)(=O)c2ccc(C)cc2)c(N2CCCC(C)C2)s1 (stereo not shown)	13.9%
CCOCCCNC(=S)NCCCNc1nc2ccc(C)cc2cc1C#N	8%
CCOC(=O)N1CCN(C(=O)CSc2nc(=O)n3ccc(C)cc3n2)CC1	10.2%
O=C(CO/N=C1\CCCc2nonc21)Nc1ccccc1Cl	6.66%
CN(C)CC#CCOCCOCCC#N	19.2%
Cc1ccc2sc(N(CCCN(C)C)C(=O)c3ccc(Br)s3)nc2c1C.Cl	-35.1%
CC(C)C1CC(CCN)(Cc2ccccc2)CCO1.Cl (stereo not shown)	8.49%
Cc1ccccc1-n1c(=O)cc(N2CCC3(CC2)OCCO3)[nH]c1=O	13.6%
Cc1ccccc1C1CC(=O)NC2=C1C(=O)CCC2 (stereo not shown)	20.6%
CCOC(=O)N1CCN(C(=O)C2CCN(CC3CCCCC3)CC2)CC1.O=C(O)C(=O)O	14.8%
CCc1nnc(NC(=O)CSc2nnc(-c3c[nH]c4ccccc34)n2CC)s1	-17.4%
CN(C)/C(=N\OC(=O)c1ccccc1)c1nonc1N	9.09%
Cc1ccccc1NS(=O)(=O)c1cc(C(=O)Nc2cccc([N+](=O)[O-])c2)ccc1C	5.72%
COc1ccc(-c2noc(CCC(=O)NC3CCCC3)n2)cc1	11.1%
C=CCNc1nc(-c2ccc(Cl)cc2)cs1	11.1%
Cc1nnc(SCc2cc(=O)[nH]c(/N=C(\N)Nc3ccccc3)n2)s1	1.55%
Cc1cc(C)c2oc(C(=O)N3CCN(C)CC3)cc(=O)c2c1	19.1%
N/C(=C\C(=O)c1cc(Cl)ccc1O)C(Cl)(Cl)Cl	6.83%
COc1ccc(C(=O)NC(=S)N2CCN(c3ccccc3OC)CC2)cc1	-2.48%
CC(C)(C)c1ncc(S(=O)(=O)c2ccc(C(F)(F)F)cn2)c(N)n1	2.14%

Structure (SMILES)	hERG current change (%, negative = inhibition) at 1uM
CC1CC(C)CN(CCCNC(=O)c2cc3c(s2)-c2ccccc2OC3)C1 (stereo not shown)	-5.87%
CCc1ccccc1SCc1noc(C(=O)NCC2CCCO2)c1C(=O)O (stereo not shown)	14.3%
CC(O)c1ccc(-n2cnnn2)cc1 (stereo not shown)	13.3%
CCOC(=O)N1CCN(C(=O)CSc2nnc(-c3cc(OC)cc(OC)c3)o2)CC1	6.37%
COc1ccc(/C(CC2(O)C(=O)Nc3ccccc32)=N\O)cc1 (stereo not shown)	12.7%
CC1(C)Oc2ccc(C(=O)NC3CCCCC3)cc2N(CC#N)C1=O	18%
OCC[C@@H]1C[C@@H](O)[C@H](O)[C@@]2(Cc3ccccc3O2)O1	8.44%
Cc1onc(-c2ccccc2)c1C(=O)NCc1cccnc1	4.06%
C=CCNC(=O)C1CC2Cn3c(nc4ccccc43)C2N1C (stereo not shown)	2.65%
COc1cccc(/C=N/NC(=O)CC(C)O)c1OC/C=C/c1ccccc1 (stereo not shown)	11.9%
COc1ccc(S(=O)(=O)Nc2cccc(S(=O)(=O)N3CCCC3)c2)cc1OC	-5.99%
O=C(c1ccc(CS(=O)(=O)c2ccc(Br)cc2)o1)N1CCCC1	-9.31%
O=C(CCCc1ccccc1)Nc1cccc(C(=O)O)c1	14.5%
COc1ccc(OC)c(N2C(=O)NC(=O)/C(=C\c3ccc([N+](=O)[O-])s3)C2=O)c1	17.4%
O=C(O)c1c(Cl)c(Cl)c(Cl)c(Cl)c1C(=O)N1CCCCCC1	16.4%
CCn1c(SCC(=O)Nc2cc(OC)ccc2OC)nnc1C1CCCCC1	4.98%
O=C(Nc1ccccc1N1CCCCC1)c1ccc(Cl)c([N+](=O)[O-])c1	16.1%
Cc1ccc(NC(=O)Cn2nc(C)c([N+](=O)[O-])c2C)cc1C	1.3%
